Among all 46,000 compounds or so, about 60 (0.1%) were called active. Another 3% or so got no clear call; they are omitted. Calls come from the whole dose curve; as a rule, active = well fitted inhibition curve with a large enough effect; inconclusive = small, poorly fitted or top-dose-only effect; inactive = no such curve, though single readings can be large or run the other way. The list shows a part of the results.
Experiment: Primary qHTS assay for Inhibitors of ovarian cancer metastasis using an organotypic tumor microenvironment (TME) model.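 For activity change, negative = inhibition: plate controls were DMSO wells for no effect and tomatine positive control wells for full effect.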 Note: nearly all actives have a fitted effect of over 65% in size.
Details: SKOV3ip1-GFP adhesion/invasion on 3D omental model, fluorescence; series mostly up to 45.8 µM; activity change, negative = inhibition: at the top concentration
Method in brief: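 Primary human omental fibroblast/mesothelial 3D culture pre-formed 48 h. SKOV3ip1-GFP cells added with compounds (0.36-46 umol/L), incubated 2 h RT/16 h 37 C, fixed; GFP cells quantified at 488/509 nm.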

Structure (SMILES) | activity change, negative = inhibition | outcome
Cc1oc(-c2ccccc2Cl)nc1CS(=O)(=O)CC(=O)NC(C)c1ccccc1 (configuration not stated) | inactive: 2.15% | 
CCOc1ccccc1CNC(=O)CSc1nnc(C)c2c(C)n(-c3ccccc3)nc12 | inactive: -3.17% | 
CCOCCCNC(=O)c1ccc2c(=O)n(CCc3ccc(OC)c(OC)c3)c(=O)[nH]c2c1 | inactive: 2.66% | 
CC(=O)N1CCc2cc(S(=O)(=O)NC(CC(C)C)C(=O)NCCc3cccc(C)c3)ccc21 (configuration not stated) | inactive: -5.84% | 
COc1ccc(-c2cnnn2-c2ccc(NC(=O)c3ccccc3OC)cc2)cc1 | inactive: -8.87% | 
COc1ccc(CCNC(=O)CN2C(=O)COc3ccc(S(=O)(=O)N4CCCC4)cc32)c(OC)c1 | inactive: 3.32% | 
Cc1c(C(=O)NCc2cccc(Cl)c2)sc2nc3n(c(=O)c12)CCCC3 |  | inactive
Cc1ccc(NC(=O)CC2Oc3ccccc3NC2=O)cc1C (configuration not stated) |  | inactive
COc1ccc(C2=C(N3CCN(c4cccc(C)c4C)CC3)c3ccccc3C2=O)cc1 | inactive: 3.46% | 
COc1ccc(-c2nc3sc(CCNC(=O)C(=O)Nc4cccc(NC(C)=O)c4)c(C)n3n2)cc1 | inactive: 10.9% | 
Nc1nn(-c2ccccc2)nc1C(=O)OCc1ccc(Cl)cc1 |  | inactive
Cn1c(=O)n(Cc2c(F)cccc2Cl)c(=O)c2c1nc1n2CCN1c1ccc(F)cc1 | inactive: 3.05% | 
CCN(CC)CCCNC(=O)c1ccc(Cn2c(SCc3ccccc3)nc3cccnc32)cc1 | inactive: -3.78% | 
CO[C@@H]1C(N(C)C(=O)c2ccccc2)C[C@H]2O[C@]1(C)n1c3ccccc3c3c4c(c5c6ccccc6n2c5c31)C(=O)NC4=O (some centres not stated) | inactive: -7.97% | 
COc1ccc(-c2cn3nc(N4CCCC(C(=O)NCc5ccc(Cl)cc5)C4)sc3n2)cc1 (configuration not stated) | inactive: 2.99% | 
Cc1ccc(CCNC(=O)C2CCCN(c3nnc(C)c4c(C)n(-c5ccccc5)nc34)C2)cc1 (configuration not stated) | inactive: 2.52% | 
COCCNC(=O)c1nn(-c2ccc(C)cc2)c(=O)c2c1c1ccccc1n2C | inactive: 2.71% | 
CC1=C(C(=O)NCc2ccccc2F)C2(CCCCC2)OC1=O | inactive: -7.42% | 
Cc1ccc(CSc2ncc(Cl)c(C(=O)Nc3nnc(C)s3)n2)cc1 | inactive: -0.239% | 
COc1cccc(-c2nc(CS(=O)(=O)CC(=O)NCc3cccc(Cl)c3)c(C)o2)c1 |  | inactive
CC1=C(c2ccc(F)cc2)S(=O)(=O)N=C1N1CCC(C(=O)NCCc2cccc(C)c2)CC1 | inactive: -3.18% | 
O=C(Nc1ccccc1Cl)N1CCC(CN2CCCC2)CC1 | inactive: 6.66% | 
Cc1ccc(NC(=O)CN2C(=O)c3cccnc3Oc3ccc(Cl)cc32)cc1 | inactive: 0.866% | 
COc1cc2ncc3c(-c4ccc(C)cc4)nn(-c4ccc(F)cc4F)c3c2cc1OC | inactive: 2.63% | 
COc1ccc(Cn2ccnc2SCC(=O)Nc2nc3ccccc3s2)cc1 | inactive: 0.533% | 

Structure (SMILES) | activity change, negative = inhibition | outcome
Cc1ccccc1OCCSc1nc2ccc(NC(=O)c3cccc(F)c3)cc2s1 | inactive: 9.24% | 
O=C(NCc1ccc2c(c1)CCN2C(=O)c1ccccc1)Nc1cccc(C(F)(F)F)c1 | inactive: -4.45% | 
COc1ccc(NC(=O)c2cc3c(s2)-c2c(C)cccc2OC3)cc1Cl | inactive: 20.4% | 
Cc1cc(Nc2ccccc2C)n2nc(Cc3ccc(Cl)cc3)nc2n1 |  | inactive
Cc1ccn2c(Nc3ccc4c(c3)OCCO4)c(-c3ccc(C)o3)nc2c1 | inactive: 3.9% | 
Cc1c(C(=O)NCc2ccccc2Cl)sc2ncnc(N(C)C3CCCCC3)c12 | inactive: -1.8% | 
CC(=O)c1ccc(NC(=O)c2ccc3c(c2)N(Cc2cccc(Cl)c2)C(=O)c2ccccc2S3=O)cc1 (configuration not stated) | inactive: -1.8% | 
Cc1ccccc1-c1nc(CN2CCC(C(=O)NCc3ccc(F)cc3)CC2)c(C)o1 | inactive: -0.0814% | 
CCOC(=O)c1c(C)n(-c2ccccc2)c2ccc(OC(=O)COc3ccc(Cl)cc3)cc12 | inactive: -5.42% | 
O=C(NCc1ccccc1)c1ccc(NC(=O)N2CC3CCCN3c3ccccc32)cc1 (configuration not stated) | inactive: -1.07% | 
Cn1c(=O)oc2cc(S(=O)(=O)CCC(=O)N3CCN(c4cccc(Cl)c4)CC3)ccc21 | inactive: 7.31% | 
CCNC(=O)C1CCN(S(=O)(=O)c2ccc3c(c2)CCCN3C(C)=O)CC1 | inactive: 0.367% | 
CCOc1cc(C(=O)Nc2ccc(-c3cn4cccnc4n3)cc2)cc(OCC)c1OCC |  | inactive
Cc1ccc2c(c1)c1c(c(=O)n(-c3ccccc3)c(=O)n1CC(=O)NCC1CCCO1)n2C (configuration not stated) | inactive: 8.12% | 
Cc1nc2ccccn2c(=O)c1NC(=O)c1ccc(F)c(F)c1 | inactive: -2.9% | 
Cc1cccc(NC(=O)C2CCCN2S(=O)(=O)c2ccc3nc(-c4ccccc4)[nH]c3c2)c1 (configuration not stated) | inactive: -6.67% | 
COc1cc(Cl)c(NC(=O)c2cc3ccccn3n2)c(OC)c1 | inactive: 23.9% | 
Cc1ccc(C)c(N2CCN(S(=O)(=O)c3cc(C(=O)Nc4ccc(Oc5ccccc5)cc4)ccc3F)CC2)c1 | inactive: -6.83% | 
COc1ccc(Br)cc1CNC(=O)c1cnc2sc(N3CCC(C)CC3)nn2c1=O | inactive: -6.67% | 
CCCCNC(=O)CCCCCn1c(=O)[nH]c2ccccc2c1=O | inactive: -14.4% | 
CCc1ccc(NC(=O)CN2C(=O)c3cccc4cccc2c34)cc1 | inactive: 0.907% | 
Cc1ccc(S(=O)(=O)c2nnn3c2nc(NCc2ccc4c(c2)OCO4)c2sccc23)cc1C | inactive: 6.42% | 
Cc1nn2c(=O)cc(COC(=O)c3ccc(NC(=O)COc4ccc(C)c(C)c4)cc3)nc2s1 | inactive: -10.3% | 
O=c1n(Cc2ccccc2Cl)c2ccccc2c2nc(-c3ccccc3)nn12 | inactive: 5.68% | 
CCOc1ccc(C2CC(=O)Nc3nc(SCc4ccccc4C)[nH]c(=O)c32)cc1OC (configuration not stated) | inactive: -10.2% | 

Structure (SMILES) | activity change, negative = inhibition | outcome
CC(C)NC(=O)c1ccc(Cn2c(SCC(N)=O)nc3ccccc3c2=O)cc1 |  | inactive
COCCCNC(=O)Cn1cnc2sc(C)c(S(=O)(=O)N3CCC(C)CC3)c2c1=O | inactive: -3.76% | 
Cc1ncc(CO)c2c1Oc1nc(-c3ccccc3Cl)nc(SCc3ccccc3F)c1C2 | inactive: -3.46% | 
COC(=O)C(C)Sc1ccc2nnc(CCNS(=O)(=O)c3ccc(C)cc3)n2n1 (configuration not stated) | inactive: -3.93% | 
Cc1ccc(C)c(NC(=O)n2ncc3cc(Cl)ccc32)c1 | inactive: 9.22% | 
CCc1ccc(-n2c(=O)c3cccnc3n2CC(=O)NCc2ccccc2)cc1 |  | inactive
COC(=O)c1cc2oc(C)cc2n1Cc1ccc(Br)cc1F | inactive: 8.13% | 
COC(=O)c1ccc(NC(=O)CSc2ccc(-c3sc(-c4ccccc4)nc3C)nn2)cc1 | inactive: -0.671% | 
CCC(Oc1ccccc1-c1nnc(-c2ccccc2)o1)C(=O)Nc1ccc(C(C)=O)cc1 (configuration not stated) | inactive: 2.74% | 
COc1ccc(C2CC(=O)N3CN(C4CCCCC4)CSC3=C2C#N)c(OC)c1 (configuration not stated) | inactive: 8% | 
COc1ccc2nc(N(Cc3cccnc3)C(C)=O)sc2c1 |  | inactive
COc1cc(Cl)c(C)cc1Nc1nc2ccccc2c2nnc(C)n12 | inactive: -5.32% | 
O=C(NCc1cccnc1)c1nn(-c2ccc(Cl)cc2)nc1CO | inactive: -2.06% | 
COc1ccc(Nc2ncc3c(n2)CCN(Cc2ccccc2C)C3)c(OC)c1 |  | inactive
COc1ccccc1C1CC(=O)NC(C)=C1C(=O)OC1CCCCCC1 (configuration not stated) |  | inactive
O=C(NC1CC(=O)N(c2ccc(F)cc2)C1)c1ccco1 (configuration not stated) | inactive: -4.17% | 
O=C(Nc1cccc(C(F)(F)F)c1)c1ccc2c(c1)nnn2C1CCCC1 | inactive: 5.82% | 
COc1ccc(S(=O)(=O)NCCc2nnc3ccc(SCC(=O)Nc4ccccc4C)nn23)cc1 | inactive: -1.45% | 
CCc1ccc(-n2c(=O)c3c4c(sc3n(Cc3ccccc3C#N)c2=O)CCC4)cc1 | inactive: 18.5% | 
COc1cc2c(cc1OC)CN(C(=O)Nc1ccccc1)CC2 | inactive: -10.6% | 
CCS(=O)(=O)Nc1ccc(-c2cn3ccsc3n2)cc1 | inactive: 9.32% | 
COc1ccc(-c2nc3sc(CCNC(=O)c4ccco4)c(C)n3n2)cc1 |  | inactive
Cn1cc(CN(C(=O)Nc2ccccc2)C2CCCCC2)c2ccccc21 | inactive: 32.6% | 
CCCCn1c(=N)n(CCCOc2ccc(F)cc2)c2ccccc21 |  | inactive
CCn1cc2nc(SCc3cc(C)ccc3C)n(CCc3ccccc3)c(=O)c2n1 |  | inactive

Structure (SMILES) | activity change, negative = inhibition | outcome
CCCCn1c(=O)c2oc3ccccc3c2n(CC(=O)Nc2ccc(CC)cc2)c1=O | inactive: -0.558% | 
COc1ccccc1NC(=O)c1ccc(COc2ccc(C)c(C)c2)o1 | inactive: -0.951% | 
Cc1cccc(N2CCN(S(=O)(=O)c3c(C)nc4scc(C)n4c3=O)CC2)c1C | inactive: 3.86% | 
Cn1c(=O)c2c(nc(N3CCOCC3)n2Cc2ccccc2Cl)n(C)c1=O |  | inactive
COCCCNC(=O)CCCn1c(=O)c2ccccc2n(CC(=O)Nc2ccc(C)cc2Cl)c1=O | inactive: 7.04% | 
O=C(NCCc1ccc(Cl)cc1)c1nnc(Cc2ccc(Cl)cc2Cl)o1 | inactive: 2.03% | 
CC(C)Cn1c(-c2ccccc2Cl)nc2ccccc21 | inactive: -14% | 
CC(C)Cn1c(CN2CCN(c3cccc(Cl)c3)CC2)nc2c1c(=O)[nH]c(=O)n2C | inactive: 15.1% | 
COc1ccc(N(CC(=O)NCCc2ccc(C)cc2)S(=O)(=O)c2c(C)nn(C)c2C)cc1 |  | inactive
O=C(CSc1nncn2c1cc1occc12)Nc1ccc(F)c(Cl)c1 | inactive: 3.7% | 
COc1cc(OC)cc(-c2nnc(SCC(=O)c3ccc([N+](=O)[O-])cc3)o2)c1 |  | inactive
O=C(NCCc1ccc(Cl)cc1)c1ccc2nc(CCc3ccccc3)oc2c1 | inactive: 4.59% | 
Cc1nc(S(=O)(=O)N2CCN(c3cccc(Cl)c3)CC2)cn1C | inactive: -8.72% | 
COc1cc(Nc2nn(-c3ccc(OC(F)(F)F)cc3)nc2C(C)=O)cc(OC)c1 | inactive: 24.8% | 
O=C(CCCn1c(=O)[nH]c2ccc(Br)cc2c1=O)N1CCN(c2cccc(Cl)c2)CC1 | inactive: 36.9% | 
COc1cc(OC)cc(-n2c(=O)c3ccccc3n(Cc3ccccc3C#N)c2=O)c1 | inactive: 0.556% | 
CCCCc1nn2c(=O)cc(COC(=O)c3ccc4c(c3)OCO4)nc2s1 |  | inactive
CCOC(=O)c1cc(-c2ccc(OC)cc2)n(CCC(=O)Nc2cccc(C)c2C)c1C | inactive: -18.3% | 
COc1cc(NC(=O)c2ccc(-c3nc(CSc4ccccc4)c(C)o3)cc2)cc(OC)c1 | inactive: -6.85% | 
CCc1ccc(NC(=O)Cn2nc(C(F)(F)F)c3c2CCCC3)cc1 | inactive: 3.65% | 
CCC(=O)Nc1cc(-c2cn3cccnc3n2)ccc1OC | inactive: -2.43% | 
CC1=C(C(=O)Nc2ccccc2)C(C(C)C)n2nc(SCc3ccccc3C)nc2N1 (configuration not stated) |  | inactive
